# Data: the supplement of paper PMC7826260
# The list shows a part of the results. The data describe in vitro nicking of single-stranded DNA by Rep domains (3 µM enzyme, 1 h, 37 °C); shown is the middle of each 90-letter strand. Numbers give uncut DNA relative to the enzyme-free pool, as log2; the lower, the more was cut; hits are not called. Shares of all reads are compared; where an enzyme cuts many sequences, the uncut ones exceed 0.
# Legend:
# Test in all cases: uncleaved DNA left, log2 of reads against the no-enzyme library (log2 ratio); higher = less cleavage (more negative = more Rep cleavage of the k-mer); sequences stand for … in CTCGTCCG…ACCGGAGA
# [1] = test system: T1, Rep nickase domain of Muscovy duck circovirus
# T1 sequence (residues 1-111 of Rep, tag left off): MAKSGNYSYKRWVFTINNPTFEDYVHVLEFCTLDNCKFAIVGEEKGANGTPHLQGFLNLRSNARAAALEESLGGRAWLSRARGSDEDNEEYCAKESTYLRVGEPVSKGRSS
# Description: (§1)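 A pool of 90-nt single-stranded DNAs with seven random bases just before the constant AC of the nick site (name = the seven bases) was cut by 3 µM recombinant His6-SUMO-tagged Rep nickase domain (300 nM DNA, 50 mM HEPES pH 8.0, 50 mM NaCl, 1 mM MnCl2, 1 h, 37 °C, three replicates). Uncut DNA was amplified and sequenced.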
# [2] = test system: T2, Rep nickase domain of banana bunchy top virus
# T2 sequence (residues 1-94 of Rep, tag left off): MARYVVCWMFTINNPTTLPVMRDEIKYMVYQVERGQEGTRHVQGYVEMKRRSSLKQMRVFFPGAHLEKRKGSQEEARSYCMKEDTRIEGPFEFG
# Description: as §1
# [3] = test system: T3, Rep nickase domain of cabbage leaf curl virus
# T3 sequence (residues 1-116 of Rep, tag left off): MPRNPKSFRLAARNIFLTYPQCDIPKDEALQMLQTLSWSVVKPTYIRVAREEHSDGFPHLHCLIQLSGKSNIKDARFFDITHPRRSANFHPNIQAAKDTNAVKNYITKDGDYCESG
# Description: as §1
# [4] = test system: T4, Rep nickase domain of chickpea chlorotic dwarf virus
# T4 sequence (residues 1-124 of Rep, tag left off): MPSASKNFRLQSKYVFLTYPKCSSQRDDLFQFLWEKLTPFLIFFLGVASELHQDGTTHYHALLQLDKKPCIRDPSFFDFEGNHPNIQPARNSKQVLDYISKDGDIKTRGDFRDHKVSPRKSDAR
# Description: as §1
# [5] = test system: T5, Rep nickase domain of faba bean necrotic yellows virus
# T5 sequence (residues 1-98 of Rep, tag left off): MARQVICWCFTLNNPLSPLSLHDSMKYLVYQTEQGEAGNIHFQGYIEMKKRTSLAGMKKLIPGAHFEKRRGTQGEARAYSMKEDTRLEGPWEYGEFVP
# Description: as §1
# [6] = test system: T6, Rep nickase domain of maize striate mosaic virus
# T6 sequence (residues 1-117 of Rep, tag left off): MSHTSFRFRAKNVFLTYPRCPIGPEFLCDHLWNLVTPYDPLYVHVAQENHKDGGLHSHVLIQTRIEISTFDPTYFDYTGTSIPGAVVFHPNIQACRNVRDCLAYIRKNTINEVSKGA
# Description: as §1
# [7] = test system: T7, Rep nickase domain of porcine circovirus 2
# T7 sequence (residues 2-116 of Rep, tag left off): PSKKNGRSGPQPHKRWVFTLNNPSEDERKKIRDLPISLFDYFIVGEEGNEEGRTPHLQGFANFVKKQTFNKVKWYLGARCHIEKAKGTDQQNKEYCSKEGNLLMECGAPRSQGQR
# Description: as §1
# [8] = test system: T8, Rep nickase domain of tomato golden mosaic virus
# T8 sequence (residues 1-124 of Rep, tag left off): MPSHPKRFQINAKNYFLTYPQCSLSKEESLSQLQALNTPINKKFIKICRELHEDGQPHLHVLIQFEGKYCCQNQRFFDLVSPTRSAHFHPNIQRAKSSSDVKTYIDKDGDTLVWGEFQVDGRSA
# Description: as §1
# [9] = test system: T9, Rep nickase domain of tomato yellow leaf curl virus
# T9 sequence (residues 1-136 of Rep, tag left off): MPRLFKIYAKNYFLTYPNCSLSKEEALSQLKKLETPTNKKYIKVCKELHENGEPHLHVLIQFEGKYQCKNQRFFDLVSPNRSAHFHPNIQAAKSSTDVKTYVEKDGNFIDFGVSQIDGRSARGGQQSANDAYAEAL
# Description: as §1
# [10] = test system: T10, Rep nickase domain of wheat dwarf virus
# T10 sequence (residues 1-137 of Rep, tag left off): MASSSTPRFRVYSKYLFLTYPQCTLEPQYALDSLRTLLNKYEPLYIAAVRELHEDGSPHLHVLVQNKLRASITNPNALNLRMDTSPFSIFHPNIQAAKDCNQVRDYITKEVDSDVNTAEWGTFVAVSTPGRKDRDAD
# Description: as §1
Sequence,uncleaved DNA left (log2) [1],uncleaved DNA left (log2) [2],uncleaved DNA left (log2) [3],uncleaved DNA left (log2) [4],uncleaved DNA left (log2) [5],uncleaved DNA left (log2) [6],uncleaved DNA left (log2) [7],uncleaved DNA left (log2) [8],uncleaved DNA left (log2) [9],uncleaved DNA left (log2) [10]
AAAGATC,0.0592,0.0663,0.18,0.26,0.0932,0.532,0.219,0.153,0.0264,0.118
GGCACTG,-0.0434,-0.0158,-0.0399,0.624,-0.129,1.63,0.0455,-0.0183,-0.0274,0.0522
AGACACT,0.0947,-0.0303,0.761,1.41,0.0106,2.12,0.0272,-0.0224,0.11,0.145
ACCGAGG,0.0552,0.0662,0.116,0.625,0.105,-0.00569,0.298,0.172,0.0595,0.0381
GTAGCAC,-0.0342,-0.012,0.208,0.699,-0.178,1.22,-0.0899,-0.107,-0.0566,-0.06
TATCCGC,-0.0823,-0.164,-0.443,-0.677,-0.08,-1.17,0.0358,-0.0334,-0.0425,-0.0803
TGCAAGG,0.0366,0.149,0.42,1.09,0.165,1.29,0.156,0.162,0.00977,0.0383
CATTCTA,-0.801,-0.952,-0.286,-2.62,-0.155,-1.12,-1.43,-0.11,-0.201,-0.0918
GAAACCG,-0.0253,-0.0932,-0.685,-0.795,0.08,-0.857,0.0819,0.0513,-0.00413,-0.0412
AGCAACA,0.0918,-0.0363,0.0284,-0.513,-0.0636,0.735,-0.608,-0.0279,-0.00162,0.0511
GGTGCGC,0.116,-0.137,-0.196,0.262,0.0895,-0.145,0.0873,-0.00065,-0.0159,0.0431
GTATAGT,-1.11,0.0646,0.156,0.36,0.0533,1.39,-0.921,0.0294,0.0677,0.0567
CTGCCTG,-0.143,0.000343,-0.0913,0.0698,0.0748,-0.0329,-0.201,0.0576,0.149,0.0254
GTCCTCG,-0.129,-0.027,0.0904,0.326,-0.167,0.598,0.0578,-0.0123,-0.0665,-0.0183
GTCACGT,0.078,0.128,0.375,0.824,0.0176,1.16,0.167,0.138,0.177,0.168
ACTGCTT,0.0779,-0.0828,-0.269,-0.845,0.0151,-0.363,-0.338,0.0933,-0.00944,-0.152
GGAGAGC,0.0456,0.119,0.764,1.62,0.0362,1.87,0.122,0.0116,0.0426,0.0964
TTGCGGA,0.102,-0.0899,-0.583,-0.555,0.0628,-0.964,0.138,-0.0209,0.162,-0.0566
TCCGGAC,-0.169,0.0165,0.312,0.969,-0.11,1.16,-0.0185,-0.059,-0.035,-0.0683
CTTCTCC,-0.0148,-0.0477,-0.0327,0.0483,-0.0348,0.924,0.0379,-0.176,0.00151,0.0349
CGAAAAG,0.0617,0.0487,-0.678,-0.278,-0.0411,-1.03,0.0956,0.0639,0.127,-0.00564
CATAAAA,-0.00713,0.0477,0.0339,-0.352,-0.00645,-0.807,0.176,0.108,0.0178,0.0246
TTTACTG,0.0241,0.126,-0.0515,0.113,0.0117,1.07,0.0457,-0.0372,0.00152,0.0462
TACGATC,-0.0618,0.0592,-0.0428,-0.972,-0.0968,-0.559,-0.0918,-0.0786,-0.0826,0.0666
GTATGTG,0.0411,0.0339,-0.572,-0.48,0.00588,-0.836,0.149,-0.0163,0.112,-0.0699
TAATACC,-3.1,-0.322,-3.9,-3.45,-1.78,-2.99,-3.63,-3.72,-0.121,-3.52
CTGTGTC,-0.00346,-0.0627,-0.0608,-0.382,-0.256,-0.952,-0.0799,-0.182,0.00176,-0.0412
AGCCAGT,-0.105,-0.0335,-0.133,0.351,-0.0394,0.232,-0.0964,-0.0367,0.0708,-0.032
CGTTGCC,-0.0217,-0.0396,-0.934,-0.577,0.00535,-0.912,-0.46,-0.289,0.116,-0.303
AATTATA,-2.69,-0.784,-0.227,-2.85,0.0489,-0.75,-2.59,0.0426,0.0739,-0.0366
